Test results reported in patent US12043670B2, “Anti-BCMA antibody-drug conjugates and methods of use” (Eisai R&D Management Co., Ltd., priority 2020, dated 2024).
Numbering of substitutions follows the chain as printed. Numbers in names are those of the source.

T1: extracellular domain of human BCMA (Homo sapiens, UniProt Q02223)
T1 construct: tips loaded with the extracellular domain of human or rhesus monkey BCMA (amino linked) were generated
T1 sequence (Q02223 1-54 limits assumed): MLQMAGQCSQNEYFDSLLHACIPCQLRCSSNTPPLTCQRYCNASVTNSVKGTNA

B1: AB200_Fab + D99E: AB200 Fab with D99E mutation at heavy chain Kabat position 99, non-mutated AB200 light chain (antibody)
VH: QVQLVQSGAEVKKPGSSVKVSCKASGGTFSNYWMHWVRQAPGQGLEWMGATYRGHSDTYYNQKFKGRVTITADKSTSTAYMELSSLRSEDTAVYYCARGAIYEGYDVLDNWGQGTLVTVSS
light: DIQMTQSPSSLSASVGDRVTITCSASQDISNYLNWYQQKPGKAPKLLIYYTSNLHSGVPSRFSGSGSGTDFTLTISSLQPEDFATYYCQQYRKLPWTFGQGTKLEIKRTVAAPSVFIFPPSDEQLKSGTASVVCLLNNFYPREAKVQWKVDNALQSGNSQESVTEQDSKDSTYSLSSTLTLSKADYEKHKVYACEVTHQGLSSPVTKSFNRGEC
B2: AB200_Fab + D99H (antibody)
heavy: QVQLVQSGAEVKKPGSSVKVSCKASGGTFSNYWMHWVRQAPGQGLEWMGATYRGHSDTYYNQKFKGRVTITADKSTSTAYMELSSLRSEDTAVYYCARGAIYHGYDVLDNWGQGTLVTVSSASTKGPSVFPLAPSSKSTSGGTAALGCLVKDYFPEPVTVSWNSGALTSGVHTFPAVLQSSGLYSLSSVVTVPSSSLGTQTYICNVNHKPSNTKVDKKVEPKSC
light: B1 light
B3: AB200_Fab + D99Q: AB200 Fab with D99Q mutation at heavy chain Kabat position 99, non-mutated AB200 light chain (antibody)
VH: B1 VH with E103Q
light: B1 light
B4: AB200-(2Vk35)_R2-VH-v76 (antibody)
heavy: B2 heavy with M34I, G54I, H55Q, Q62E, G66S, Y105F, L108I
light: B1 light with S24R, D28S, N31S, L33I, Y50A, H55Q, K93R, L94I
B5: AB200-(2Vk35)_R2-VH-v62 (antibody)
heavy: B2 heavy with M34I, A50G, G54I, Q62E, G66S, L108I, D109E
light: B1 light with S24R, D28S, N31S, L33I, Y50A, H55Q, K93R, L94I
B6: AB200-(2Vk35)_R2-VH-v56 (antibody)
heavy: B2 heavy with T28S, M34I, G54I, N61A, F64Y, G66S, Y102F, L108I
light: B1 light with S24R, D28S, N31S, L33I, Y50A, H55Q, K93R, L94I
B7: AB200-(2Vk35)_R2-VH-v69 (antibody)
heavy: B2 heavy with M34I, G54I, H55Q, Y59N, G66S, I101V, L108I
light: B1 light with S24R, D28S, N31S, L33I, Y50A, H55Q, K93R, L94I
B8: AB200-(2Vk35)_R2-VH-v49 (antibody)
heavy: B2 heavy with F29Y, M34I, G54I, H55Q, D57T, G66S, L108I, D109E
light: B1 light with S24R, D28S, N31S, L33I, Y50A, H55Q, K93R, L94I
B9: AB200-(2Vk35)_R2-VH-v6 (antibody)
heavy: B2 heavy with S30T, M34I, G54S, N61A, F64Y, G66S, I101V, L108I
light: B1 light with S24R, D28S, N31S, L33I, Y50A, H55Q, K93R, L94I
B10: AB200-(2Vk35)_R2-VH-v55 (antibody)
heavy: B2 heavy with T28S, M34I, G54I, D57T, F64Y, G66S, I101V, L108I
light: B1 light with S24R, D28S, N31S, L33I, Y50A, H55Q, K93R, L94I
B11: AB200-(2Vk35)_R2-VH-v52 (antibody)
heavy: B2 heavy with T28S, M34I, G54I, H55Q, N61A, G66S, Y102F, L108I
light: B1 light with S24R, D28S, N31S, L33I, Y50A, H55Q, K93R, L94I
B12: AB200-(2Vk35)_R2-VH-v63 (antibody)
heavy: B2 heavy with M34I, G54I, D57T, Y59N, G66S, K74E, I101V, L108I
light: B1 light with S24R, D28S, N31S, L33I, Y50A, H55Q, K93R, L94I
B13: AB200-(2Vk44)_R2-VH-v7 (antibody)
heavy: B2 heavy with F29Y, M34I, G54S, D57T, N61A, G66S, Y105F, L108I
light: B1 light with S24R, D28S, N31S, L33I, Y50A, H55Q, S56I, K93R, T97S
B14: AB200-(2Vk44)_R2-VH-v44 (antibody)
heavy: B2 heavy with S30T, M34I, G54I, Y59N, N61A, G66S, L108I, D109E
light: B1 light with S24R, D28S, N31S, L33I, Y50A, H55Q, S56I, K93R, T97S
B15: AB200-(2Vk44)_R2-VH-v70 (antibody)
heavy: B2 heavy with M34I, G54I, Y59N, F64Y, G66S, I101V, L108I
light: B1 light with S24R, D28S, N31S, L33I, Y50A, H55Q, S56I, K93R, T97S
B16: AB200-(2Vk44)_R2-VH-v53 (antibody)
heavy: B2 heavy with T28S, M34I, G54I, Y59N, F64Y, G66S, Y102F, L108I
light: B1 light with S24R, D28S, N31S, L33I, Y50A, H55Q, S56I, K93R, T97S
B17: AB200-(2Vk44)_R2-VH-v41 (antibody)
heavy: B2 heavy with S30T, M34I, A50G, G54I, Q62E, G66S, Y105F, L108I
light: B1 light with S24R, D28S, N31S, L33I, Y50A, H55Q, S56I, K93R, T97S
B18: AB200-(2Vk44)_R2-VH-v35 (antibody)
heavy: B2 heavy with M34I, G54S, N61A, F64Y, G66S, L108I, D109E
light: B1 light with S24R, D28S, N31S, L33I, Y50A, H55Q, S56I, K93R, T97S
B19: AB200-(2Vk44)_R2-VH-v64 (antibody)
heavy: B2 heavy with M34I, G54I, D57T, N61A, G66S, Y105F, L108I
light: B1 light with S24R, D28S, N31S, L33I, Y50A, H55Q, S56I, K93R, T97S
B20: AB200-(2Vk44)_R2-VH-v61 (antibody)
heavy: B2 heavy with M34I, A50G, G54I, F64Y, G66S, L108I, D109E
light: B1 light with S24R, D28S, N31S, L33I, Y50A, H55Q, S56I, K93R, T97S
B21: AB200-(2Vk44)_R2-VH-v68 (antibody)
heavy: B2 heavy with M34I, G54I, Y59N, N61A, G66S, K74E, Y105F, L108I
light: B1 light with S24R, D28S, N31S, L33I, Y50A, H55Q, S56I, K93R, T97S
B22: AB200-(2Vk44)_R2-VH-v14 (antibody)
heavy: B2 heavy with T28S, M34I, G54S, D57T, Q62E, G66S, I101V, L108I
light: B1 light with S24R, D28S, N31S, L33I, Y50A, H55Q, S56I, K93R, T97S
B23: AB200-(2Vk44)_R2-VH-v60 (antibody)
heavy: B2 heavy with M34I, A50G, G54I, H55Q, G66S, L108I, D109E
light: B1 light with S24R, D28S, N31S, L33I, Y50A, H55Q, S56I, K93R, T97S
B24: AB200-(2Vk44)_R2-VH-v28 (antibody)
heavy: B2 heavy with M34I, G54S, D57T, F64Y, G66S, Y105F, L108I
light: B1 light with S24R, D28S, N31S, L33I, Y50A, H55Q, S56I, K93R, T97S
B25: AB200-(2Vk44)_R2-VH-v1 (antibody)
heavy: B2 heavy with S30T, M34I, A50G, G54S, F64Y, G66S, L108I, D109E
light: B1 light with S24R, D28S, N31S, L33I, Y50A, H55Q, S56I, K93R, T97S
B26: AB200-(2Vk44)_R2-VH-v75 (antibody)
heavy: B2 heavy with M34I, G54I, H55Q, F64Y, G66S, I101V, L108I
light: B1 light with S24R, D28S, N31S, L33I, Y50A, H55Q, S56I, K93R, T97S
B27: AB200-(2Vk44)_R2-VH-v22 (antibody)
heavy: B2 heavy with M34I, A50G, G54S, H55Q, G66S, I101V, L108I
light: B1 light with S24R, D28S, N31S, L33I, Y50A, H55Q, S56I, K93R, T97S
B28: AB200-(2Vk44)_R2-VH-v58 (antibody)
heavy: B2 heavy with M34I, A50G, G54I, Y59N, G66S, Y105F, L108I
light: B1 light with S24R, D28S, N31S, L33I, Y50A, H55Q, S56I, K93R, T97S
B29: AB200-(2Vk44)_R2-VH-v72 (antibody)
heavy: B2 heavy with M34I, G54I, H55Q, N61A, G66S, I101V, L108I
light: B1 light with S24R, D28S, N31S, L33I, Y50A, H55Q, S56I, K93R, T97S
B30: AB200-(2Vk44)_R2-VH-v24 (antibody)
heavy: B2 heavy with M34I, A50G, G54S, Q62E, G66S, Y102F, L108I
light: B1 light with S24R, D28S, N31S, L33I, Y50A, H55Q, S56I, K93R, T97S
B31: AB200-(2Vk44)_R2-VH-v54 (antibody)
heavy: B2 heavy with T28S, M34I, G54I, Y59N, Q62E, G66S, L108I, D109E
light: B1 light with S24R, D28S, N31S, L33I, Y50A, H55Q, S56I, K93R, T97S

Target: T1, extracellular domain of human BCMA
Assay: Octet binding assay, human BCMA
Conditions: Fab format, 200 nM
Description: (§1) The binding affinity of each mutated clone for the extracellular domain of human and monkey BCMA was determined by Octet assay (ForteBio). Amine Reactive 2nd Generation (AR2G) tips loaded with the extracellular domain of human or rhesus monkey BCMA (amino linked) were generated and incubated in a 200 nM solution of each antibody clone (all clones in Fab format). Ligand association and dissociation were determined over 600 seconds (300 seconds for each stage).
B1 gave a Koff of 0.00091 s⁻¹ and a Kon of 0.00015 nM⁻¹ s⁻¹. With B2 the Koff was 0.00037 s⁻¹ and the Kon was 0.00018 nM⁻¹ s⁻¹. In the case of B3, the Koff is reported as 0.00053 s⁻¹ and the Kon is reported as 0.00017 nM⁻¹ s⁻¹.

Target: T2, extracellular domain of rhesus monkey BCMA (Macaca mulatta, UniProt F7FFA0)
T2 construct: tips loaded with the extracellular domain of human or rhesus monkey BCMA (amino linked) were generated
T2 sequence (F7FFA0 1-53): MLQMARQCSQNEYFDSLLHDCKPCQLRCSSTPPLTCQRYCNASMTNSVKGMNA
Assay: Octet binding assay, rhesus monkey BCMA
Conditions: Fab format, 200 nM
Description: as §1
B1 showed a Koff of 0.00219 s⁻¹ and a Kon of 0.00016 nM⁻¹ s⁻¹. B2 showed a Koff of 0.00105 s⁻¹ and a Kon of 0.00018 nM⁻¹ s⁻¹. B3 showed a Koff of 0.0014 s⁻¹ and a Kon of 0.00018 nM⁻¹ s⁻¹.

Tested on: not listed separately
Assay: ThermoFluor thermostability (Tm)
Format: physicochemical
Conditions: Fab fragment; heavy chain clone paired with light chain AB200-(2Vk35)
Work on B4 yielded a Tm of 79.284 °C. With B5 the Tm was 78.430 °C. For B6, the Tm was 77.030 °C. With B7 the Tm was 77.807 °C. In the case of B8, the Tm is reported as 79.187 °C. B9 gave a Tm of 77.987 °C. With B10 the Tm was 80.450 °C. Work on B11 yielded a Tm of 76.770 °C. Molecule B12 has a Tm of 80.226 °C.

Same assay, conditions: Fab fragment; heavy chain clone paired with light chain AB200-(2Vk44)
In the case of B13, the Tm is reported as 77.428 °C. B14 gave a Tm of 74.070 °C. Work on B15 yielded a Tm of 76.335 °C. In the case of B16, the Tm is reported as 75.218 °C. Molecule B17 has a Tm of 78.286 °C. In the case of B18, the Tm is reported as 76.189 °C. B19 showed a Tm of 77.787 °C. Work on B20 yielded a Tm of 76.850 °C. B21 showed a Tm of 75.716 °C. In the case of B22, the Tm is reported as 81.915 °C. In the case of B23, the Tm is reported as 77.692 °C. For B24, the Tm was 80.311 °C. B25 gave a Tm of 78.407 °C. In the case of B26, the Tm is reported as 78.398 °C. B27 showed a Tm of 79.696 °C. Work on B28 yielded a Tm of 75.513 °C. Molecule B29 has a Tm of 77.278 °C. Molecule B30 has a Tm of 79.156 °C. With B31 the Tm was 75.912 °C.
